Laboratory results reported in the supplement of paper PMC3334620.
Over roughly 33,000 sequences, “E-score (-0.5 to 0.5)” has its median near -0.032; the highest 2% begin near 0.36. The list shows a part of the results.

target: T1, Sko1 (UniProt Q02100); assay: PBM E-score (8-mer binding enrichment) (E-score (-0.5 to 0.5)); higher = stronger / more preferred TF binding; most listed sequences are background and not binding sites; settings: protein concentration: 200 nM; construct: GST-full length
T1 sequence: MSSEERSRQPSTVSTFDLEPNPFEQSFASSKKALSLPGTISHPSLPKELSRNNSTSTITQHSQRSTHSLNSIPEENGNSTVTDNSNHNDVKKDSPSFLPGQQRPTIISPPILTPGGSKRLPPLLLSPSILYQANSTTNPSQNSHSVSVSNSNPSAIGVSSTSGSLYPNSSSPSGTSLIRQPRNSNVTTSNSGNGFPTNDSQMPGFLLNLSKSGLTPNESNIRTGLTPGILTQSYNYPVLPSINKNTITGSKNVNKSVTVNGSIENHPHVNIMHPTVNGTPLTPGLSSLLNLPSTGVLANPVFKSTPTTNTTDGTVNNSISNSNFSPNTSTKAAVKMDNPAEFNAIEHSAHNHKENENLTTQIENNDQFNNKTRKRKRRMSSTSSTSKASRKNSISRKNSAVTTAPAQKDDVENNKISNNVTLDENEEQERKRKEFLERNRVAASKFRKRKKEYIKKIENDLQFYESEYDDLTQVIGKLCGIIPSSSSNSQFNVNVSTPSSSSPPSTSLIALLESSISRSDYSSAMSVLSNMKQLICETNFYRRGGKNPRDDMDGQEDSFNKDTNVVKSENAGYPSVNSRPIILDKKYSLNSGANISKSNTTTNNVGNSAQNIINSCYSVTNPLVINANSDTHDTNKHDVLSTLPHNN
Method in brief: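 Masliner-normalised scans of fluorescent anti-GST signal were the basis for scoring. That signal came from GST-tagged yeast transcription factors applied at about 100-200 nM to double-stranded universal all-10-mer Agilent arrays on fresh or once-stripped slides. Each ungapped eight-base word, pooled with its reverse complement, received an E-score from the Universal PBM Analysis Suite.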

| Sequence | PBM E-score |
| --- | --- |
| ATAAAATA | 0.296 |
| AAGTAGAT | -0.00622 |
| ACGATGCG | 0.137 |
| CGCTCACG | -0.0319 |
| ACTGCCTG | -0.0718 |
| ACGTGAAT | 0.352 |
| AACGTACG | 0.398 |
| GCGGCTAC | 0.00144 |
| CGTCTACC | 0.109 |
| AGGTGGAC | -0.246 |
| GTTCCGCA | 0.00536 |
| GAACGGTA | 0.0791 |
| AGGGGTTC | -0.404 |
| AATTGGCA | -0.103 |
| ATCTTGAC | 0.0398 |
| CCAGTACA | -0.0729 |
| CGTGAATC | 0.13 |
| GGTCCAGA | -0.155 |
| CGTTGGTA | 0.155 |
| ACCGCCCG | -0.373 |
| CACATGTA | 0.173 |
| CCCAGTTA | -0.349 |
| AGTCTCAT | -0.131 |
| CTGTATTA | 0.0596 |
| AAGTCGGG | -0.167 |

| Sequence | PBM E-score |
| --- | --- |
| CCCAGTGA | -0.0739 |
| GACTTTGA | -0.0083 |
| ATAATATC | 0.162 |
| CTAGGGAA | -0.227 |
| CTATTGGA | 0.0191 |
| CTCGACAC | -0.0253 |
| ACATGCAC | 0.0263 |
| CCGTAGGC | -0.293 |
| GACAGCCC | -0.284 |
| GTCACCGA | 0.24 |
| GGATAGTA | 0.0727 |
| CTGATTAC | 0.273 |
| TATTAGCA | 0.0657 |
| CCCCATCG | -0.0523 |
| CGGACATA | -0.0121 |
| ATACGGCC | -0.0724 |
| CGACTCCA | -0.217 |
| GGTCGATA | -0.11 |
| GAGATGAC | 0.254 |
| GCCAAATA | 0.0494 |
| GCCGATCC | -0.179 |
| GTGGTGCA | -0.0179 |
| AACCAGAC | -0.0273 |
| CCATCTGC | -0.0664 |
| AGTGCAAC | -0.0845 |

| Sequence | PBM E-score |
| --- | --- |
| GTGCTCGA | 0.0264 |
| GTGTGGTA | 0.0525 |
| AAACGCAA | 0.335 |
| GAGCATCC | -0.287 |
| CGCAATAC | 0.353 |
| CCGTCCAG | -0.146 |
| CCGCGTAG | 0.0625 |
| TAACGCAA | 0.312 |
| GTGCCATA | 0.0178 |
| GATGATGC | 0.287 |
| GCTAAGCC | -0.23 |
| GGATACTA | -0.192 |
| GAACGTTA | 0.18 |
| ACACAGGC | -0.161 |
| AAGAGTGG | -0.237 |
| GGAACCAA | -0.153 |
| GATCCCCC | -0.38 |
| GGTCTAGA | 0.0496 |
| CATTACGG | 0.292 |
| GCGCATAC | 0.103 |
| CACGGTAA | -0.0239 |
| CTCCTCAA | -0.203 |
| CGCTAGCC | -0.238 |
| GTTCCCAA | -0.141 |
| CCGATATA | 0.0219 |

| Sequence | PBM E-score |
| --- | --- |
| CTCCCCAA | -0.143 |
| AATTATTA | 0.298 |
| ATCTAAAG | 0.00277 |
| CTTAGGCC | -0.202 |
| CCGTTCAG | -0.294 |
| AGTTGCCG | -0.0106 |
| CCTTTTCG | 0.0232 |
| ACGTCTAA | 0.344 |
| CGCAACAC | 0.23 |
| GCGCAACC | -0.162 |
| GGCCAGAA | -0.216 |
| CAGACGAA | 0.0971 |
| CGCTTCGA | -0.159 |
| AAACCGCG | 0.0382 |
| CGAGCAAA | -0.291 |
| CCGAGATA | 0.00305 |
| ACTACTTA | 0.024 |
| TCCCGGGA | -0.183 |
| CCTCGGCA | -0.133 |
| ACAACAAA | 0.225 |
| CTCTGGAA | 0.0683 |
| AAGCACCG | -0.293 |
| CACTGGAC | -0.0032 |
| GCGCCTGA | -0.152 |
| ATAGGGAT | -0.104 |

| Sequence | PBM E-score |
| --- | --- |
| GTCACAAC | 0.182 |
| GCGAGGAC | -0.251 |
| CGACGGAA | -0.105 |
| CTTGCTTC | 0.0228 |
| AGTTCATA | 0.0294 |
| AGAAATCA | 0.0843 |
| CCCCTAGA | -0.22 |
| CCACACAC | -0.0596 |
| CTCCGGAC | -0.168 |
| AACGCGCG | 0.185 |
| ATGGAAAT | 0.131 |
| GGGATACA | -0.321 |
| GGCAGCGA | -0.28 |
| ACCGAGGC | -0.319 |
| GACGGTCA | 0.0778 |
| GGTCTCGA | -0.126 |
| CTACGCAA | 0.414 |
| CCTAGCAG | -0.253 |
| GTTGGTTA | 0.149 |
| AGTCTTAT | 0.111 |
| AGTTTACG | 0.354 |
| CACCTGGG | -0.194 |
| AGTGATGG | -0.0618 |
| AGCCACGA | -0.218 |
| CCATCGAC | -0.255 |

| Sequence | PBM E-score |
| --- | --- |
| ATGGTAAC | 0.15 |
| TAGAAAAA | 0.128 |
| AACTATGA | 0.195 |
| GAACGTCC | 0.117 |
| ACTTAGTG | 0.00172 |
| AGGCCATA | -0.301 |
| AGGATAAC | -0.0505 |
| ATCGATAC | 0.0878 |
| GCCACGTA | 0.421 |
| CCCGCAGC | -0.313 |
| CTATCTGC | -0.161 |
| GGGAAATA | 0.0114 |
| GGCAGTTA | -0.0613 |
| CAACGGCA | -0.157 |
| GATCGCAA | 0.0791 |
| CGCGGTCC | -0.202 |
| CATGCTTC | -0.0498 |
| AAATGAAC | 0.075 |
| GTCATTAA | 0.393 |
| GACAGATA | 0.0381 |
| CAGCTACG | 0.265 |
| CAGAGCGG | -0.134 |
| AGTTGTTG | -0.114 |
| CCTGCCTA | -0.201 |
| ATATACTA | 0.103 |

| Sequence | PBM E-score |
| --- | --- |
| CCCGTGTA | -0.302 |
| TCAGTCGA | 0.0544 |
| CCTGAGAA | 0.0886 |
| AAGAAACG | 0.169 |
| GGATCCGA | -0.184 |
| GGCTACCC | -0.329 |
| GTTATGCA | 0.0767 |
| ATTATCTA | 0.225 |
| AAAAAACA | 0.22 |
| ACCCGGAC | -0.152 |
| GACATGTC | 0.175 |
| GAAGGCGA | -0.268 |
| ATCATACC | 0.171 |
| AAAAGAGC | -0.00335 |
| CGTAACTA | 0.381 |
| ATCGACAT | 0.166 |
| CGGTTTTC | -0.0282 |
| ATGTAGGA | -0.0513 |
| AGTATATC | -0.0108 |
| CGTTCGGC | -0.211 |
| CGCATTAC | 0.15 |
| GCTGCACC | -0.318 |
